According to patent publication US12493045B2, “Multi-target crosslinkers and uses thereof” (The Regents of the University of California, priority 2018, dated 2025):

Tests used:
[1] = target: endogenous EGFR in MCF7 cells (Homo sapiens, UniProt P00533); test: Crosslinking of endogenous EGFR on mammalian cell surface (Western blot); assay type: cell-based; details: with or without NHQM and UV
[2] = target: 14-3-3 protein expressed in E. coli cells (Homo sapiens, UniProt P63104); details: crosslinker applied to intact cells, UV 365 nm 15 min
Chain of UniProt P63104 (P63104 whole entry): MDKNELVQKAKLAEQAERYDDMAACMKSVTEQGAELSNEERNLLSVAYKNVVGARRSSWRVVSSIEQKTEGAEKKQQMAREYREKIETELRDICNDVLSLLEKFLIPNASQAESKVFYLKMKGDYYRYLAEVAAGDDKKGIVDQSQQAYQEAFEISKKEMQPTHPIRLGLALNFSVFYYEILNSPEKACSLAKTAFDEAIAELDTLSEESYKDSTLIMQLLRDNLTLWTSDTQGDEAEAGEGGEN

Q: Which results are given for `O=C(ON1C(=O)CCC1=O)c1ccc(OCc2ccccc2[N+](=O)[O-])c(C(F)F)c1` [NHQM]?
A: Endogenous EGFR dimerization [1]: detected only in the presence of UV and NHQM; Dimeric crosslinking of 14-3-3 inside E. coli cells [2]: did not detect any 14-3-3 dimeric form
